In the supplement of paper PMC7125110:
± gives the standard error. This sample is rich in variants without activity.

B1: glmS ribozyme (parent)
chain: AUAAAAGCGCCAGAACUACAGAAAUGUAGUUGACGAGGAGGAGGUUUAUCGAAUUUUCGGCGGAUGCCUCCAAA

What was measured:
Conditions in all cases: with glucosamine-6-phosphate
[1] = variants of: B1; assay: self-cleavage kobs at 640 uM GlcN6P; higher = faster cleavage; RNA array
How it was run: (§1)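 Over ~14 h at 37 °C, tiles were imaged as glucosamine-6-phosphate (40 μM to 10 mM) in HEPES/KCl/Mg(OAc)2 buffer flowed across sequenced MiSeq chips. The chips carried barcoded ribozyme variants transcribed in situ by E. coli RNA polymerase and tracked with a hybridised Cy3 probe. After normalisation to baseline and to non-cleaving reference variants, one- or two-exponential decay fits of per-tile medians gave kobs. kcat and KM followed from weighted Michaelis–Menten fits across concentrations.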

[2] = variants of: B1; assay: self-cleavage kobs at 160 uM GlcN6P; higher = faster cleavage; RNA array
How it was run: as §1

[3] = variants of: B1; assay: self-cleavage kobs at 2500 uM GlcN6P; higher = faster cleavage; RNA array
How it was run: as §1

[4] = variants of: B1; assay: self-cleavage kobs at 10000 uM GlcN6P; higher = faster cleavage; RNA array
How it was run: as §1

Row | Variant | self-cleavage kobs at 640 uM GlcN6P [1] [s⁻¹] | self-cleavage kobs at 160 uM GlcN6P [2] [s⁻¹] | self-cleavage kobs at 2500 uM GlcN6P [3] [s⁻¹] | self-cleavage kobs at 10000 uM GlcN6P [4] [s⁻¹]
1 | U31C U45A C67A | 0.000203 ± 4.8e-05 | 0.000102 ± 3e-05 | 0.000723 ± 0.00023 | 
2 | A36U G44U C50A C61U | < 1e-05 |  | < 1e-05 | 
3 | U30G G41U C58A C67G | < 1e-05 |  |  | 
4 | G38A A42G | < 1e-05 | < 1e-05 | < 1e-05 | < 1e-05
5 | G37U G43A C68U C71A | < 1e-05 |  | < 1e-05 | 
6 | U31C G32C G43C U49C G62U C68A | < 1e-05 |  |  | 
7 | U30C A36U | < 1e-05 | < 1e-05 |  | < 1e-05
8 | C34G G37A U45A C58A | < 1e-05 |  |  | 
9 | U31G G35C C68G | < 1e-05 |  |  | 
10 | U31G G35U G60U C71U | < 1e-05 | < 1e-05 |  | 
11 | U31A A33U G44U U69C | < 1e-05 |  |  | 
12 | G32U G41C U65G | < 1e-05 |  | < 1e-05 | 
13 | G32C C50U U65C | < 1e-05 |  | < 1e-05 | 
14 | A36U U49G C58U | < 1e-05 | < 1e-05 | < 1e-05 | 
15 | C34A G44U C50A | < 1e-05 |  |  | 
16 | G35C A36U G37U G38C A42G | < 1e-05 |  |  | 
17 | U30C G35C A48U U54C | < 1e-05 |  | < 1e-05 | 
18 | A33U G44U U56G C68U | < 1e-05 | < 1e-05 |  | 
19 | A36G G43C U55A G59U U65C | < 1e-05 | < 1e-05 |  | 
20 | G32A G44U A53C | < 1e-05 |  | < 1e-05 | 
21 | G35C C58U | < 1e-05 | < 1e-05 |  | 
22 | G32U U47A U56A C68U C70A | < 1e-05 |  | < 1e-05 | 
23 | A36U U45C U56C | < 1e-05 |  | < 1e-05 | 

Row | Variant | self-cleavage kobs at 640 uM GlcN6P [1] [s⁻¹] | self-cleavage kobs at 160 uM GlcN6P [2] [s⁻¹] | self-cleavage kobs at 2500 uM GlcN6P [3] [s⁻¹] | self-cleavage kobs at 10000 uM GlcN6P [4] [s⁻¹]
24 | G35U C68U | < 1e-05 |  | < 1e-05 | 
25 | A33U C34A G40C G59C C61U C71G | < 1e-05 |  | < 1e-05 | 
26 | G35U U57G | < 1e-05 | < 1e-05 |  | < 1e-05
27 | G35A A48U U69C | < 1e-05 |  | < 1e-05 | 
28 | G38A C67U C70U | < 1e-05 | < 1e-05 |  | 
29 | U30G A39U U45G | 0.000324 ± 5.9e-05 |  | 0.00055 ± 0.0001 | 0.0014 ± 0.00018
30 | G35U G37C G51U | < 1e-05 | < 1e-05 |  | 
31 | G37C C58A | < 1e-05 | < 1e-05 |  | < 1e-05
32 | A33C G38C A53U A64U | < 1e-05 |  | < 1e-05 | 
33 | G32C G43U U45G | < 1e-05 |  |  | 
34 | U30G A53C | 0.000512 ± 0.0001 | 0.000159 ± 6.4e-05 | 0.00138 ± 0.00034 | 0.00177 ± 0.00022
35 | U30A G32U A42U U45C | < 1e-05 |  | < 1e-05 | 
36 | A33U A36G A64G | < 1e-05 | < 1e-05 | < 1e-05 | 
37 | A33U C50G G51A | < 1e-05 |  |  | 
38 | U31A A36C U65A | < 1e-05 |  | < 1e-05 | 
39 | G35U G62U G66U C68U | < 1e-05 |  |  | 
40 | A33U U45G U47A G63U | < 1e-05 |  |  | 
41 | U31G G40C C61A | < 1e-05 | < 1e-05 | < 1e-05 | 
42 | U30G G38U U45G A48U U57A | < 1e-05 |  |  | 
43 | G32U G40C G43C | < 1e-05 |  | < 1e-05 | 
44 | G32A G66U C68G | 0.000111 ± 3.9e-05 |  |  | 
45 | G29U A42C G44U U54A C68A | < 1e-05 | < 1e-05 | < 1e-05 | 
46 | A33C C34A U65C C67U | < 1e-05 |  |  | 

Row | Variant | self-cleavage kobs at 640 uM GlcN6P [1] [s⁻¹] | self-cleavage kobs at 160 uM GlcN6P [2] [s⁻¹] | self-cleavage kobs at 2500 uM GlcN6P [3] [s⁻¹] | self-cleavage kobs at 10000 uM GlcN6P [4] [s⁻¹]
47 | U30C U31C G38C | < 1e-05 |  | < 1e-05 | 
48 | A33G G66U | < 1e-05 | < 1e-05 | < 1e-05 | 
49 | C34G A39C | < 1e-05 |  | < 1e-05 | < 1e-05
50 | U31A C34U G35C C58U | < 1e-05 |  |  | 
51 | U31A G38U | < 1e-05 | < 1e-05 | < 1e-05 | < 1e-05
52 | U30C G37C G62A | < 1e-05 | < 1e-05 |  | 
53 | U30C U46G U57C | < 1e-05 |  |  | 
54 | U31A G32A | 0.000222 ± 3.2e-05 | 6.66e-05 ± 1.2e-05 | 0.000381 ± 7.7e-05 | 0.0014 ± 0.00017
55 | U31C G35C | < 1e-05 | < 1e-05 | < 1e-05 | < 1e-05
56 | U30G A42C U54C G62A | < 1e-05 |  |  | < 1e-05
57 | G29C G43A A52G G66U | < 1e-05 |  |  | 
58 | C34U G40U U47A G66U | < 1e-05 |  | < 1e-05 | 
59 | G32U G35A A42C | < 1e-05 | < 1e-05 |  | 
60 | G32C G38U G62A | < 1e-05 |  |  | 
61 | G29U C58A C68A | 0.000121 ± 3.2e-05 |  | 3.43e-05 ± 1.5e-05 | 
62 | G35C G40C | < 1e-05 | < 1e-05 | < 1e-05 | < 1e-05
63 | A33G U54G | < 1e-05 | < 1e-05 |  | < 1e-05
64 | U30C A42C C67U | < 1e-05 | < 1e-05 | < 1e-05 | < 1e-05
65 | U30G A36G U46A C68U | < 1e-05 |  |  | 
66 | U30G A33G | < 1e-05 |  |  | < 1e-05
67 | A36C U55G | < 1e-05 |  |  | < 1e-05
68 | U31C G43U G62U | < 1e-05 |  | < 1e-05 | 
69 | G32C A33G A42U U45G U57C A64C C71A | < 1e-05 |  | < 1e-05 | 

Row | Variant | self-cleavage kobs at 640 uM GlcN6P [1] [s⁻¹] | self-cleavage kobs at 160 uM GlcN6P [2] [s⁻¹] | self-cleavage kobs at 2500 uM GlcN6P [3] [s⁻¹] | self-cleavage kobs at 10000 uM GlcN6P [4] [s⁻¹]
70 | G29C U49C A64U | < 1e-05 |  |  | 
71 | G29U U69G | 7.49e-05 ± 1.7e-05 | 5.79e-05 ± 1.4e-05 | 5.06e-05 ± 1.2e-05 | 
72 | G32C G43C G60U | < 1e-05 | < 1e-05 |  | 
73 | A33G A39C | < 1e-05 | < 1e-05 | < 1e-05 | < 1e-05
74 | G32A G40A U47A G63U | < 1e-05 |  | < 1e-05 | 
75 | A33U C61U | < 1e-05 |  |  | 
76 | G35C G60U G63U G66U | < 1e-05 |  |  | 
77 | G32A U57A C70G | 0.000649 ± 0.00023 |  |  | 
78 | G35A G59A | < 1e-05 |  |  | < 1e-05
79 | G37U A42C U49C | < 1e-05 |  | < 1e-05 | 
80 | G32C A42U A53G U57A A64G | < 1e-05 |  | < 1e-05 | 
81 | U31A C58G A64C C68U | 0.00011 ± 3.5e-05 |  | 8.36e-05 ± 2.2e-05 | 
82 | G32C A39C A42U A64G U65C | < 1e-05 |  | < 1e-05 | < 1e-05
83 | G32A G35C G41C G51C | < 1e-05 |  | < 1e-05 | 
84 | U31C U45C G60C G63U | < 1e-05 | < 1e-05 | < 1e-05 | 
85 | G35C U55A | < 1e-05 | < 1e-05 |  | 
86 | A36U G41A U54G | < 1e-05 | < 1e-05 |  | 
87 | G37U G38A G59A | < 1e-05 |  |  | 
88 | G32C G35U C50A U56A | < 1e-05 |  |  | 
89 | G38A U45G | < 1e-05 | < 1e-05 | < 1e-05 | 
90 | A36C A48C A53U | < 1e-05 | < 1e-05 | < 1e-05 | 
91 | A33C G35A U46A | < 1e-05 |  |  | 
92 | G38C U46G A64C | < 1e-05 |  |  | < 1e-05

Row | Variant | self-cleavage kobs at 640 uM GlcN6P [1] [s⁻¹] | self-cleavage kobs at 160 uM GlcN6P [2] [s⁻¹] | self-cleavage kobs at 2500 uM GlcN6P [3] [s⁻¹] | self-cleavage kobs at 10000 uM GlcN6P [4] [s⁻¹]
93 | A36U U46A | < 1e-05 | < 1e-05 | < 1e-05 | < 1e-05
94 | C34A C67U C68A | < 1e-05 |  | < 1e-05 | 
95 | A33G G41C | < 1e-05 |  | < 1e-05 | 
96 | U31G U56G C67U | 0.000176 ± 5.1e-05 | 8.73e-05 ± 3.2e-05 | 0.000493 ± 0.00014 | 0.00086 ± 0.00015
97 | U30A C70G C71U | 5.91e-05 ± 2.5e-05 |  | 8.51e-05 ± 2.9e-05 | 
98 | A33C A39C G43U G51C | < 1e-05 |  |  | 
99 | A36C G63A C67U | < 1e-05 | < 1e-05 |  | 
100 | U31G G41U G51U C71A | < 1e-05 |  | < 1e-05 | 
101 | A33G G44U C61U C67G | < 1e-05 |  | < 1e-05 | 
102 | C34U A36U | < 1e-05 | < 1e-05 | < 1e-05 | 
103 | G32A G41C U55G G66C | < 1e-05 |  |  | 
104 | U30G A36U U46C U49A C58A | < 1e-05 | < 1e-05 |  | 
105 | G35U G51A C68A | < 1e-05 |  |  | 
106 | U31A C34U G51U | < 1e-05 |  | < 1e-05 | 
107 | C34A A39G | < 1e-05 |  |  | 
108 | A33G A39G G41A | < 1e-05 |  |  | 
109 | G29U A39G U56A | 0.001 ± 0.00039 | 8.2e-05 ± 2.8e-05 | 0.00181 ± 0.00055 | 
110 | G29C G40C | 3.65e-05 ± 1.5e-05 |  | 7.4e-05 ± 1.6e-05 | 8.84e-05 ± 1.8e-05
111 | A33G G62U U65A | < 1e-05 |  | < 1e-05 | 
112 | G35A U47G C50A U65A | < 1e-05 | < 1e-05 | < 1e-05 | 
113 | G38C G62A | < 1e-05 |  |  | 
